Assay results taken from paper PMC4336329 (PLoS ONE, 2015).
The campaign covered roughly 310,000 compounds. About 14,000 (4.5%) showed an effect of 50% or more. Effects have a minus sign here. The list shows a part of the results.

Target: human ether-à-go-go-related gene (hERG) potassium channel (human, UniProt Q12809)
Test: primary screen, population patch clamp on CHO cells stably expressing hERG
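Further: peak tail current of the secondary pulse compared with the same well before compound.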

human ether-à-go-go-related gene (hERG) potassium channel, sequence (Q12809 whole entry, looked up): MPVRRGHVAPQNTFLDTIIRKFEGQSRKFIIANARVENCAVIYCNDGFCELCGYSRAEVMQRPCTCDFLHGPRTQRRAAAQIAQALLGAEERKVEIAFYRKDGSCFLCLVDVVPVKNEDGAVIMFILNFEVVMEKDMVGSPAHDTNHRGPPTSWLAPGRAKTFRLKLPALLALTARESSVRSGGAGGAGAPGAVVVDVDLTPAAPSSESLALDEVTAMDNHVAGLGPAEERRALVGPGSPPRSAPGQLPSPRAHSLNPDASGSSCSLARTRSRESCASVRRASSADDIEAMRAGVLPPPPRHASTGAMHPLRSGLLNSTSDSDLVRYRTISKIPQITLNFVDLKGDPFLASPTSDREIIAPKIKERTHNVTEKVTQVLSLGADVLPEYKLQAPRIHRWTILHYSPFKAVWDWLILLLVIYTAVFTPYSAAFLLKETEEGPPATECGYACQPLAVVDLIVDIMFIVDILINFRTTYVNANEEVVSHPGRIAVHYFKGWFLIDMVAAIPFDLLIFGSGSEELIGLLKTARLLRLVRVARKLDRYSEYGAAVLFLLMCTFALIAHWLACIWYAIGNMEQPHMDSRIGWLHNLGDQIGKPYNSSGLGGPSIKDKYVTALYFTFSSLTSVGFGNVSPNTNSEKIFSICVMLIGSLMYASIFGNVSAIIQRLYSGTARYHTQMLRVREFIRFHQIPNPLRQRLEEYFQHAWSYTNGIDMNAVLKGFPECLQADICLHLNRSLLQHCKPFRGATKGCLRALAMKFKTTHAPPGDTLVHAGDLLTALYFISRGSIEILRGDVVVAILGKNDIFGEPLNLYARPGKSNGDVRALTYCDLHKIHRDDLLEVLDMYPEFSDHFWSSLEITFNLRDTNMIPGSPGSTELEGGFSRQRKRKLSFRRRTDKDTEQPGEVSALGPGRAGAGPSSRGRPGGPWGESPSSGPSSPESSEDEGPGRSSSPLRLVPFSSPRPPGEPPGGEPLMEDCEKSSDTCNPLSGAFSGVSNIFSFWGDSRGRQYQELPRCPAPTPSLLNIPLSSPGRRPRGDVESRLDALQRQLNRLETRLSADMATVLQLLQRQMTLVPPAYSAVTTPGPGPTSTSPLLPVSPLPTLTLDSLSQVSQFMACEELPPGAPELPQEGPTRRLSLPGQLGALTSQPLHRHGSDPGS

SMILES | hERG current change (%, negative = inhibition) at 10uM
O=C(NCCC1=CCCCC1)C1CCN(c2nc3ccccc3o2)CC1 | -13.9%
O=C(O)C=C1CCN(c2ncc(C(F)(F)F)cc2Cl)CC1 | 14.5%
Cn1cc(CN2CCN(CCO)CC2)c(-c2ccc(Oc3ccccc3)cc2)n1 | -32.3%
Cn1c(=O)c2c(n(Cc3ccccc3)c1=O)NC(=O)C2CC(=O)NCc1cccc(Cl)c1 (centres unmarked) | -8.83%
O=C(c1ccc2c(=O)n(-c3ccccc3)c(=S)[nH]c2c1)N1CCCCC1 | 14.7%
O=C(c1cccc(C(F)(F)F)c1)N1CCOc2ccccc21 | -6.95%
O=C(c1cc(Cl)ccc1[N+](=O)[O-])n1cnc2ccccc21 | -11.9%
O=C(Nc1cccc([N+](=O)[O-])c1)c1ccc(CSc2ccccc2)cc1 | 3.55%
Cc1nn(Cc2ccc(C(=O)n3cccn3)o2)c(C)c1Br | -14%
CCOC(=O)C1CCCNC1=O (centres unmarked) | 14.8%
COc1ccc(/C=N/N2CCN(C)CC2)cc1O | 10.8%
OC(CNCCc1ccccc1)c1ccccc1 (centres unmarked) | -0.0558%
CCOC(=O)c1c(NC(=O)Nc2cccc(Cl)c2)sc(C)c1C | -16.5%
COc1ccccc1OCCNc1cc(N2CCOCC2)ccc1[N+](=O)[O-] | -16.6%
COC(=O)c1sccc1NC(=O)CN(C)NS(=O)(=O)c1ccc([N+](=O)[O-])cc1 | 2.53%
CCc1ccccc1NC(=O)CCN1C(=O)C2C3CCC(C3)C2C1=O (centres unmarked) | 10.8%
Oc1c(Cl)cccc1C=Nc1cc(C(F)(F)F)ccc1N1CCCC1 | -5.58%
O=[N+]([O-])c1ccc(S(=O)(=O)N2CCC3(CC2)OCCN3S(=O)(=O)c2cccs2)cc1 | -50.4%
COc1ccc(CCNC(=O)CSc2nnc(CNC(=O)c3ccco3)o2)cc1OC | 0.33%
COc1ccc(C(=O)N(Cc2ccc(N(C)C)cc2)C2CCS(=O)(=O)C2)cc1 (centres unmarked) | -10.3%
COc1cccc2[nH]c3c(N4CCCC(C)C4)ncnc3c12 (centres unmarked) | 14.8%
O=C(NC(=S)NCc1nc2ccccc2[nH]1)c1ccccc1F | -15.1%
N#Cc1c(N)oc(-c2ccccc2)c1-c1ccccc1 | -5.02%

SMILES | hERG current change (%, negative = inhibition) at 10uM
NC(=O)c1ccccc1N(Cc1ccccc1)S(=O)(=O)c1ccccc1 | 10.7%
COc1ccc(CN2C(=O)C(Cc3ccccc3)Nc3ncnc(N4CCOCC4)c32)cc1.O=C(O)C(F)(F)F (centres unmarked) | -15.6%
Cc1ncc([N+](=O)[O-])n1CC(=O)Nc1ccc(F)cc1 | 1.56%
O=C(O)C12CC3CC(C1)CC(n1ncc(N4CCN(c5ccccc5)CC4)c(Cl)c1=O)(C3)C2 | 14.2%
CCCOc1ccc2c3c(c(=O)oc2c1OCCC)CCC3 | 7.44%
CCN1CCN(C(=O)c2cc(COc3ccc4ncccc4c3)on2)CC1 | 9.12%
Cc1ccc(N=Nc2ccc(O)c(P(=O)(c3ccccc3)c3ccccc3)c2)cc1 | -42.7%
CCOC(=O)CN1C(=O)C(CC)Oc2ccc(Cl)cc21 (centres unmarked) | -7.7%
Cc1cccc(NC(=O)CN(C)S(=O)(=O)c2ccccc2)n1 | -3.97%
O=C(O)c1cc(Br)ccn1 | 8.43%
CCOC(=O)C1CCN(C(=O)c2ccc3snnc3c2)CC1 | -15.6%
Fc1ccccc1NC(=S)NCc1ccc2c(c1)OCO2 | -4.33%
CC12CC(NC(=O)N1c1cccc(C(=O)N3CCN(c4ccccn4)CC3)c1)c1ccccc1O2 (centres unmarked) | -14.3%
Cc1ccc(CN2C(=O)CCC2C(=O)NCc2ccccc2Cl)cc1 (centres unmarked) | -18.6%
S=c1nc2ccccc2c2nc(-c3ccccc3)[nH]n12 | 23.9%
O=C(Nc1cccc(F)c1)OC(CN1CCCCC1)C(F)(F)F (centres unmarked) | -5.72%
COc1ccccc1NC(=O)N1CCc2[nH]c3ccc(F)cc3c2C1 | 3.61%
COC(=O)C1(Cc2ccc(O)c(CC3OC3(C)C)c2)OC(=O)C(O)=C1c1ccc(O)cc1 (centres unmarked) | 8.92%
Cc1ccc(S(=O)(=O)c2nc(Nc3nccs3)sc2Cl)cc1 | 11.6%
CC1=NC(=O)C(N=Nc2cccc(C(=O)O)c2)N1c1ccccc1 (centres unmarked) | 27.7%
c1ccc(-c2cnc(CSc3ncnc4sccc34)o2)cc1 | 7.1%
N#CCN(CC#N)C(=O)C1c2ccccc2Oc2ccccc21 | 17.8%
COc1cccc(NC(=O)c2ccc(S(=O)(=O)NCc3cccnc3)cc2)c1 | -0.62%

SMILES | hERG current change (%, negative = inhibition) at 10uM
COc1ccc(NCC(=O)N/N=C/c2cc([N+](=O)[O-])ccc2N2CCCC2)cc1 | -7.82%
CCC(C)(C)n1nnnc1CN(Cc1cccs1)Cc1cc2cc(OC)ccc2[nH]c1=O | -5.35%
O=C(CN1C(=O)CSC1=O)N1CCCC(Nc2ccc(F)cc2)C1 (centres unmarked) | 14.4%
O=C1NC(c2ccccc2)=C(c2ccc3ccccc3n2)C(c2ccncc2)N1 (centres unmarked) | -36.6%
COc1ccc(C/C(N)=N/OC(=O)COc2ccccc2C)cc1 | -1.6%
Cc1ccc(-c2nnc(SCC(=O)NC3CC3)n2N)cc1 | 8.22%
O=c1c2ccccc2nc(-c2ccco2)n1Cc1ccccc1 | -48%
Cl.O.O=C(CCN1CCOCC1)Nc1ccc2c(c1)N(C(=O)CN1CCOCC1)c1ccccc1CC2 | 1.75%
Cc1cccc(CCN(CC(=O)NC(C)(C)C)C(=O)c2csnn2)c1 | 19.9%
COc1ccccc1NS(=O)(=O)c1cc(NC(=S)Nc2cc(C)cc(C)c2)ccc1Cl | 12.1%
CCOc1ccc(Br)cc1S(=O)(=O)NCc1ccc(S(N)(=O)=O)cc1 | -1.3%
COC(=O)c1cc(S(=O)(=O)NC2CCCCC2)cn1C | 10.5%
Cc1cc(F)ccc1NCC(=O)Nc1ccccc1Br | -3.3%
Cc1cccc(NC2=C(Cl)C(=O)OC2OC(=O)c2ccco2)c1 (centres unmarked) | -7.49%
O=C1OCc2ccc(NC(=O)C3CC3)cc21 | 2.07%
CSc1nc2ccc(NS(=O)(=O)c3ccc([N+](=O)[O-])cc3)cc2s1 | -5.24%
CC(C)(CO)CN1CCC(n2nccc2NC(=O)C2CCCC2)CC1 | 11.4%
COc1ccc2c(ccn2S(=O)(=O)c2ccccc2)c1 | 11.4%
CCOc1ccc(C(=O)NCc2ccncc2)cc1OCC | 2.62%
COc1ccccc1C(=O)Nc1ccnn1C1CCN(Cc2cnn(C)c2C)CC1 | -63.7%
COc1cccc(NC(=O)c2nc(S(C)(=O)=O)ncc2Cl)c1 | -33.7%
Cc1cccc(N(CC(=O)NC2CCCC2)C(=O)CS(=O)CC(=O)Nc2ccc3c(c2)OCO3)c1 (centres unmarked) | -5.43%
COc1cccc(C2N(c3cccc(Cl)c3)C(=O)C3CCCN32)c1 (centres unmarked) | -0.999%

SMILES | hERG current change (%, negative = inhibition) at 10uM
Cc1nn(C)c(N)c1[N+](=O)[O-] | 20.5%
COc1cc(C(=O)NC2CCCCCCC2)cc(OC)c1OC | -11.7%
CC(C)(C)S(=O)(=O)c1ccc(S(=O)(=O)C(C)(C)C)s1 | 22.8%
COc1cccc(CC2(CO)CCN(C(=O)NC3CCCCC3)CC2)c1 | -13.2%
COC(=O)C1=C(c2ccc3ccccc3c2)C[C@@H]2CC[C@H]1N2C(=O)NCCCOC(C)C | -7.68%
CCN(CC(=O)Nc1c(F)cccc1F)C(=O)CCNC(=O)c1ccccc1OC | -9.56%
CSCC[C@H](NC(=O)Nc1cccc(Br)c1)C(=O)O | -0.789%
CCOC(=O)c1cc(-c2ccco2)nn1-c1ccc(C)cc1 | 1.45%
Cn1nnc(-c2ccc(OCc3ccccc3F)cc2)n1 | 6.69%
O=C(N1CCC(n2nc(-c3ccccc3)oc2=O)CC1)C1(c2ccccc2)CC1 | -17.5%
COCC(=O)Nc1nc2ccc(S(C)(=O)=O)cc2s1 | 5.83%
O=c1[nH]c(/C=C\c2cccc(F)c2)nc(O)c1[N+](=O)[O-] | 18.9%
O=C(CNC(=O)c1cccc(F)c1)OCCOc1cccc(Cl)c1 | -45.6%
O=C(Nc1ccc(O)cc1)/C(=C/c1ccco1)NC(=O)c1ccccc1 | 16.2%
COc1ccc(CC(=O)NCc2ccc3c(c2)OCO3)cc1 | 4.71%
CCc1ccc(Nc2ccc(C(=O)O)cc2[N+](=O)[O-])cc1 | 7.03%
CCN(CC)c1ncnc2ccc(Br)cc12 | -16%
CCc1ccccc1NC(=O)COc1ccc2oc(-c3ccc(OC)cc3)cc(=O)c2c1 | 5.29%
O=C(Nc1ccc(Cl)cn1)C1CCN(S(=O)(=O)c2cccs2)CC1 | -30.3%
Cc1ccc(-c2cccc(C(=O)NCc3ccccc3)n2)c2ccccc12 | 17.8%
